Test results as given in PubChem BioAssay (Tox21).
Values joined by “and” are separate entries in the source; they are usually repeats but may differ in a detail not shown here. Identical values can stand only once. The shares of active, inactive and inconclusive entries below differ from those in the screen. For some of these results: A potency beside an inconclusive call is a rough fit, not a confirmed value. Active and inactive are the calls of the source. Unless noted, the call rests on the fitted dose curve; in most records, active means well fitted curve in the direction sought with a large enough effect in the repeat runs; inconclusive means weak or mixed curves; inactive means no such curve, though single readings can be large; an effect the other way counts as inactive or inconclusive.

How the values were obtained:
[1] = molecular target: Estrogen receptor beta (Homo sapiens) (UniProt Q92731); test: qHTS assay to identify small molecule antagonists of the estrogen receptor beta (ER-beta) signaling pathway (AID 1259378; active means well fitted inhibition curve with a large enough effect in the signal ratio in the repeat runs, not every such curve was filed as active; inconclusive means weak or mixed curves, or effect the other way; inactive means no such curve, though single readings can be large or run the other way; the % refers to the signal ratio; further: potency means the concentration at half of the fitted maximal effect; on activity, negative = inhibition: on the % scale 0 is the no-effect control and ±100 the full control effect); details: ER-beta-UAS-bla HEK293T, beta-lactamase FRET ratio, 16 h; activity, negative = inhibition: at 92.4 µM (top of the series) unless noted
UniProt Q92731, sequence (Q92731 whole entry, looked up): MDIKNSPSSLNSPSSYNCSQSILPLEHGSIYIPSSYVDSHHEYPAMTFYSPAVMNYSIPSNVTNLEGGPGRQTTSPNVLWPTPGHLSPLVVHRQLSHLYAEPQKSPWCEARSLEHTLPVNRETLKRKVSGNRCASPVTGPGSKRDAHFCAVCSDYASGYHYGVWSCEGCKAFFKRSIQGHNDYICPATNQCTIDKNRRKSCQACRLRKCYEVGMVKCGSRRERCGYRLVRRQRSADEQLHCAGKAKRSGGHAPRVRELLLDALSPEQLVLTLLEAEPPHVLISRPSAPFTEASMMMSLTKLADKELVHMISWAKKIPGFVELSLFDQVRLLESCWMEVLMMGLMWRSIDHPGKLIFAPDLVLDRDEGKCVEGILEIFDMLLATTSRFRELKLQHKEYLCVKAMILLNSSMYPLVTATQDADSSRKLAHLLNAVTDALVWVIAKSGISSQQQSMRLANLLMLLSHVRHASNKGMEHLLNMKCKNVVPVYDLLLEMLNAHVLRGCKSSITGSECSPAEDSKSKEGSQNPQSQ
Procedure, shortened: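 ER-beta-UAS-bla HEK293T (GripTite) cells in 2% charcoal-stripped FBS medium were preincubated 6 hr at 37C, dosed with compound, then stimulated with 1 nM E2 (final) for 16 hr; beta-lactamase reporter read by B/G FRET fluorescence after 2 hr substrate loading.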

[2] = qHTS assay to identify small molecule agonists of the estrogen receptor beta (ER-beta) signaling pathway - cell viability counter screen (AID 1259380); further: nearly all actives have a fitted effect of over 30% in size; further: potency means the concentration at half of the fitted maximal effect
Procedure, shortened: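 Cell viability counter screen: CellTiter-Glo luminescence (30 min, room temperature) measured in the same wells as the beta-lactamase readout, after 16 hr compound exposure at 37C of ER-beta-bla HEK293T cells in 2% charcoal-stripped FBS medium.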

[3] = molecular target: Estrogen receptor (Homo sapiens) (UniProt P03372); test: qHTS assay to identify small molecule agonists of the estrogen receptor alpha (ER-alpha) signaling pathway in the presence of an antagonist (AID 1259383; calls by dose curve; further: potency means the concentration at half of the fitted maximal effect; nearly all actives have a fitted effect of over 15% in size)
UniProt P03372, sequence (P03372 whole entry, looked up): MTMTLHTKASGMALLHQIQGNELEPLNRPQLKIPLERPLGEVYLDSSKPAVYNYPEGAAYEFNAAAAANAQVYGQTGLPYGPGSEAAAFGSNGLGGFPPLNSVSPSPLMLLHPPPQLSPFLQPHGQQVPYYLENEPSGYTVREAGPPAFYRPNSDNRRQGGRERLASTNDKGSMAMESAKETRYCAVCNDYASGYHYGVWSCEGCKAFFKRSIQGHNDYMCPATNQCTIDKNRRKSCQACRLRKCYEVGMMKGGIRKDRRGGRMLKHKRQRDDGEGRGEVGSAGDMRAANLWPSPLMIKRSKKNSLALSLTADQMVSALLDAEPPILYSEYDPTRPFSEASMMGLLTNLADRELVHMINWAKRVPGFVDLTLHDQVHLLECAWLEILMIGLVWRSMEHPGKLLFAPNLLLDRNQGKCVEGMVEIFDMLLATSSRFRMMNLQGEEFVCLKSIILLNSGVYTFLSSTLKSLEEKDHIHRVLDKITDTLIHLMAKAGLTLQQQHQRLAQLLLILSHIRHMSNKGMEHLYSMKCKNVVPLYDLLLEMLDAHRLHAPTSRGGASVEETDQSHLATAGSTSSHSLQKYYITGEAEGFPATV
Procedure, shortened: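 Agonist-mode confirmation run in the presence of 10.0nM (final) ICI-182,780 antagonist. The reporter was ERE-driven luciferase in VM7Luc4E2 cells, grown in charcoal-stripped serum. Cells were exposed to 15-concentration compound series for 22hr, then ONE-Glo luminescence was read.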

[4] = molecular target: Thyrotropin receptor (Homo sapiens) (UniProt P16473); test: qHTS assay to identify small molecule antagonists of the thyroid stimulating hormone receptor (TSHR) signaling pathway (AID 1259385; calls by dose curve; further: on the % scale 0 is the no-effect control and ±100 the full control effect; nearly all actives have a fitted effect of over 20% in size); details: TSHR-HEK293 cAMP HTRF, TSH-stimulated antagonist mode; activity change, negative = inhibition: at 92.4 µM (top of the series) unless noted
UniProt P16473, sequence (P16473 whole entry, looked up): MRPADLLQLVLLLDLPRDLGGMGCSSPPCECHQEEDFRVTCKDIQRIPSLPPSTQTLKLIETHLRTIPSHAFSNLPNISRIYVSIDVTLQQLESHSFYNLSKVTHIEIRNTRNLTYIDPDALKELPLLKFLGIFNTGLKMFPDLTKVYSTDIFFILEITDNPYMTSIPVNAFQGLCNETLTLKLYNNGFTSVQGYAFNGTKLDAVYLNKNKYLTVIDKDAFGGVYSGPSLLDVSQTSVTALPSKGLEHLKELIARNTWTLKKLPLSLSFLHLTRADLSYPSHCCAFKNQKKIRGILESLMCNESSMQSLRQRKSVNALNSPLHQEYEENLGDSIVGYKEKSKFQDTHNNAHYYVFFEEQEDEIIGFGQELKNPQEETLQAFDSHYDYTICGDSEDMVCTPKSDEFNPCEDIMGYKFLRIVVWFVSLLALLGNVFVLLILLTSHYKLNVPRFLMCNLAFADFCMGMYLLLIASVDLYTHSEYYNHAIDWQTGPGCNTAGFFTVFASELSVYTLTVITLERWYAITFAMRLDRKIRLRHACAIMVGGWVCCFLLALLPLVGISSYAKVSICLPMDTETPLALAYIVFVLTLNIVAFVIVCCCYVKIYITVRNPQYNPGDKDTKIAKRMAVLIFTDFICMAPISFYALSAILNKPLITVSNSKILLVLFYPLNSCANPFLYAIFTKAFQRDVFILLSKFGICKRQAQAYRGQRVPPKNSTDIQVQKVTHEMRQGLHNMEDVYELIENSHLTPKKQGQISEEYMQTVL
Procedure, shortened: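 TSHR-HEK293 cells were plated and held 18 h at 37C/5% CO2, then given compound plus Ro20-1724 and stimulated with TSH at 1.5 ng/mL final. After 30 min at room temperature, cAMP was detected with cAMP-d2/anti-cAMP-cryptate (1 h) by fluorescence.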

[5] = molecular target: Progesterone receptor (Homo sapiens) (UniProt P06401); test: qHTS assay to identify small molecule agonists of the progesterone receptor (PR) signaling pathway (AID 1346784; calls by dose curve; further: nearly all actives have a fitted effect of over 30% in size; further: potency means the concentration at half of the fitted maximal effect; on activation: on the % scale 0 is the no-effect control and ±100 the full control effect); details: PR-UAS-bla HEK293T, beta-lactamase FRET ratio, 16 h; activation: at 92.4 µM (top of the series) unless noted
UniProt P06401, sequence (P06401 whole entry, looked up): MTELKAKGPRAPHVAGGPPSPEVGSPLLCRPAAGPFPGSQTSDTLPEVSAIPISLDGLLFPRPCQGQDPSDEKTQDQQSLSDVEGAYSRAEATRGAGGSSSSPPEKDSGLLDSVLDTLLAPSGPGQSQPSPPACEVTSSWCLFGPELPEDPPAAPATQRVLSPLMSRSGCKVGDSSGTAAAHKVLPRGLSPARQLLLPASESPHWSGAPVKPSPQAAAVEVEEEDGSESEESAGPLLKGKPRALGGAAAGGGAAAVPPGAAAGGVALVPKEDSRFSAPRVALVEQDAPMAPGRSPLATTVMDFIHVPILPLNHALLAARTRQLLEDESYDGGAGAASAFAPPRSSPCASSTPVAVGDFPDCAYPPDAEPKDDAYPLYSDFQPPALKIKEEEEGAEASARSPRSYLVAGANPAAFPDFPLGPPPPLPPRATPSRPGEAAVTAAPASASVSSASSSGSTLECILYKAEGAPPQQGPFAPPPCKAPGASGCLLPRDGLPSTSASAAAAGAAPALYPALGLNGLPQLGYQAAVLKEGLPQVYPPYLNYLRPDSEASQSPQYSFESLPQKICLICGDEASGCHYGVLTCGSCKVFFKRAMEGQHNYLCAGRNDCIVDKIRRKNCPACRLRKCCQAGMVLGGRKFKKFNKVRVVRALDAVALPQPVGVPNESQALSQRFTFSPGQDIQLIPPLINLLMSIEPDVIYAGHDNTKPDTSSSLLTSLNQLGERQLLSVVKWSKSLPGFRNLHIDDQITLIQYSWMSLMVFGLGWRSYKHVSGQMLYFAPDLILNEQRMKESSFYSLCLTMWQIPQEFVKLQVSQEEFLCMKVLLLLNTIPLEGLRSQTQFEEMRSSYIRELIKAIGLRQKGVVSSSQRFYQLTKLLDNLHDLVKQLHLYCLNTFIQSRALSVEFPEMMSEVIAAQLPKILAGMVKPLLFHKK
Procedure, shortened: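 Seed PR-UAS-bla HEK 293T cells (2% charcoal-stripped FBS), incubate 6 hr at 37C; add compounds in DMSO, 16 hr at 37C; add LiveBLAzer B/G substrate, 2 hr RT; read fluorescence intensity.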

[6] = molecular target: Progesterone receptor (Homo sapiens) (UniProt P06401); test: qHTS assay to identify small molecule antagonists of the progesterone receptor (PR) signaling pathway (AID 1346795; active means well fitted inhibition curve with a large enough effect in the signal ratio in the repeat runs, not every such curve was filed as active; inconclusive means weak or mixed curves; the % refers to the signal ratio; further: potency means the concentration at half of the fitted maximal effect; on activity change, negative = inhibition: on the % scale 0 is the no-effect control and ±100 the full control effect); details: PR-UAS-bla HEK293T, beta-lactamase FRET ratio, 16 h; activity change, negative = inhibition: at 92.4 µM (top of the series) unless noted
Procedure, shortened: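 Screening used a GripTite HEK293T line with PR-responsive UAS-beta-lactamase. Cells were challenged with compound in the presence of 1 nM R5020 final for 16 hr at 37C; B/G FRET substrate, 2 hr room temperature, fluorescence.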

[7] = qHTS assay to identify small molecule antagonists of the progesterone receptor (PR) signaling pathway - cell viability counter screen (AID 1346798); further: nearly all actives have a fitted effect of over 50% in size; further: potency means the concentration at half of the fitted maximal effect
Procedure, shortened: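 Measures cytotoxicity in parallel with the PR antagonist reporter read: HEK293T PR-UAS-bla cells get compound and R5020 for 16 hr, and remaining viable cells are quantified by CellTiter-Glo luminescence.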

[8] = qHTS assay to identify small molecule agonists of the TGF-beta/Smad signaling pathway (AID 1346859; active means well fitted activation curve with a large enough effect in the signal ratio in the repeat runs, not every such curve was filed as active; inconclusive means weak or mixed curves; the % refers to the signal ratio; further: potency means the concentration at half of the fitted maximal effect); details: SBE-bla HEK293T, TGF-beta/Smad beta-lactamase reporter, 5 h; activation: at 76.8 µM (top of the series)
Procedure, shortened: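 Beta-lactamase reporter activity downstream of Smad binding elements was measured in stably transfected HEK 293T cells; compounds were incubated for 5 hr, substrate for 2 hr at room temperature.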

[9] = qHTS assay to identify small molecule agonists of the progesterone receptor (PR) signaling pathway - cell viability counter screen (AID 1346799; calls by dose curve; further: nearly all actives have a fitted effect of over 45% in size; further: potency means the concentration at half of the fitted maximal effect)
Procedure, shortened: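 Using the same plates as the PR reporter screen, HEK293T PR-UAS-bla cells received compounds for 16 hr at 37C and were then lysed with CellTiter-Glo; luminescence was read 30 min later at room temperature.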

[10] = qHTS assay to identify small molecule agonists of the androgen receptor (AR) signaling pathway in the presence of an antagonist - cell viability counter screen (AID 1259379); further: nearly all actives have a fitted effect of over 25% in size; further: potency means the concentration at half of the fitted maximal effect
Procedure, shortened: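 Cytotoxicity counter-screen run in the same wells as the nilutamide-challenged (3.0 µM final) AR agonist assay in MDA-kb2 cells. Compounds tested at 15 concentrations for 16 h, 37 °C without CO2; CellTiter-Fluor fluorescence read.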

[11] = qHTS assay to identify small molecule antagonists of the TGF-beta/Smad signaling pathway - cell viability counter screen (AID 1346824); further: potency means the concentration at half of the fitted maximal effect; nearly all actives have a fitted effect of over 50% in size
Procedure, shortened: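 SBE-bla HEK 293T cells were plated overnight at 37 C, then given compounds in DMSO plus TGF-beta1 (added as 0.25 ng/mL solution) for 5 hr. After the bla read, CellTiter-Glo was added to the same wells and luminescence read after 30 min at room temperature.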

[12] = qHTS assay to identify small molecule agonists of the TGF-beta/Smad signaling pathway - cell viability counter screen (AID 1346829); further: potency means the concentration at half of the fitted maximal effect; nearly all actives have a fitted effect of over 45% in size
Procedure, shortened: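 In parallel with the Smad reporter read, viability of HEK 293T cells stably carrying SBE-bla is quantified by ATP luminescence following 5 hr compound treatment.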

[13] = qHTS assay to identify small molecule antagonists of the estrogen receptor beta (ER-beta) signaling pathway - cell viability counter screen (AID 1259382); further: nearly all actives have a fitted effect of over 55% in size; further: potency means the concentration at half of the fitted maximal effect
Procedure, shortened: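 Cytotoxicity was measured in the same wells by CellTiter-Glo luminescence after 30 min at room temperature. Cells were ER-beta-bla HEK293T in charcoal-stripped serum, given compound together with 1 nM E2 and incubated 16 h at 37C.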

[14] = molecular target: Androgen receptor (Homo sapiens) (UniProt P10275); test: qHTS assay to identify small molecule agonists of the androgen receptor (AR) signaling pathway in the presence of an antagonist (AID 1259381; calls by dose curve; further: potency means the concentration at half of the fitted maximal effect; nearly all actives have a fitted effect of over 15% in size)
UniProt P10275, sequence (P10275 whole entry, looked up): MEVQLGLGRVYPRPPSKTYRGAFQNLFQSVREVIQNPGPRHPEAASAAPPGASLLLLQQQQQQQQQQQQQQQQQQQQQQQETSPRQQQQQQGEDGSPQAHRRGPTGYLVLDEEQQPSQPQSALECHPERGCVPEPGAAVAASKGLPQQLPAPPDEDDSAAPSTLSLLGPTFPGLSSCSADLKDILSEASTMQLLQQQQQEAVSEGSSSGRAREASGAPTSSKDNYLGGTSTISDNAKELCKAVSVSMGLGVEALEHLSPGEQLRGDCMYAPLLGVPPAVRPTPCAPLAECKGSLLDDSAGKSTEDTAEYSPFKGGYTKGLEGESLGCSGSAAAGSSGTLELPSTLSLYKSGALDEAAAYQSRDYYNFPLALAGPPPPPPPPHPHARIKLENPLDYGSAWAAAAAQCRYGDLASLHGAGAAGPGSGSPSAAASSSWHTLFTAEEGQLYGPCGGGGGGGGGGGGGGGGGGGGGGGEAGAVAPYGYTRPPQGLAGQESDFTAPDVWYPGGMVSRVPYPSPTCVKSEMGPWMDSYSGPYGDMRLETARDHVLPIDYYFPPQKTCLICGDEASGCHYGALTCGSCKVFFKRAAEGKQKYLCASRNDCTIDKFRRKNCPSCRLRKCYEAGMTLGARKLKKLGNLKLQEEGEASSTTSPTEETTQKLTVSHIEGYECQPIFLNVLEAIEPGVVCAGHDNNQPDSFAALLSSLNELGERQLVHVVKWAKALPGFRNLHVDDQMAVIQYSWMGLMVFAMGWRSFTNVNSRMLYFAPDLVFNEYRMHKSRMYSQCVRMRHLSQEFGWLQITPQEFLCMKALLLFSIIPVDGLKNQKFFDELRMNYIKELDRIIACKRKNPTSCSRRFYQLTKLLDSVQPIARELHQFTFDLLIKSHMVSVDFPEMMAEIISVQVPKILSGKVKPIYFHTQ
Procedure, shortened: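 Agonist-mode confirmation run against 3.0 uM final nilutamide: compounds titrated at 15 concentrations onto MDA-kb2 MMTV-luciferase reporter cells. Luminescence measured with ONE-Glo following 16 hr incubation, 37C, 0% CO2.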
Tags describe the fitted curve by direction and shape or compound fluorescence and quenching.

For `CCN(CC)c1ccc(C(=O)c2ccccc2C(=O)O)c(O)c1`, the Potency [1] was inconclusive: 19.3 µM [fluorescent, partial curve, poor fit], the Potency [2] was inconclusive: 68.8 µM [cytotoxic, single point] and inconclusive: 61.1 µM [cytotoxic, partial curve] and the Potency [3] was inconclusive: 27.3 µM [activator, partial curve, poor fit]. For the same compound, the Potency [4] was “inactive”, the Potency [5] was inconclusive: 10.9 µM [rising, full curve] and the Potency [6] was inconclusive: 17.3 µM [rising, partial curve]. For the same compound, the Potency [7] was “inactive”.

With `CCCCCOc1ccc(C2SC(=O)NC2=O)cc1OCC` (stereo not drawn) the activity, negative = inhibition [1] was inconclusive: -33.7% [at 42.5 µM], the Potency [2] was active: 29.8 µM and the Potency [8] was inconclusive: 19 µM [rising, partial curve].

For `CC(=O)OCC(=O)[C@H]1CC[C@H]2[C@@H]3CCC4=CC(=O)CC[C@]4(C)[C@H]3CC[C@]12C`, the Potency [1] was inconclusive: 29.8 µM [inhibitor], the Potency [2] was inconclusive: 29.8 µM [cytotoxic, single point] and the activity change, negative = inhibition [4] was inconclusive: -10.3% [at 42.5 µM]. For the same compound, the Potency [5] was inconclusive: 0.211 µM [falling, full curve] and the Potency [9] was inconclusive: 0.266 µM [rising, full curve].

In the case of `CCCOC(=O)c1ccc(N)cc1`, the Potency [1] is reported as “inactive”, the Potency [2] is reported as “inactive” and the Potency [6] is reported as “inactive”.

With `NO` the activity, negative = inhibition [1] was inconclusive: 3.44% and the Potency [2] was “inactive”.

In the case of `COC(=O)c1cc(Cl)ccc1NS(=O)(=O)C(F)(F)F`, the Potency [1] is reported as inconclusive: 3.35 µM [inhibitor], the Potency [10] is reported as “inactive” and the Potency [5] is reported as “inactive”. For the same compound, the Potency [9] was “inactive”.

In the case of `CCC(C)C(C)=O` (stereo not drawn), the Potency [1] is reported as “inactive”, the Potency [2] is reported as “inactive” and the Potency [6] is reported as “inactive”.

For `Cc1ccc(/C=N/n2c(-c3ccccc3)csc2=S)cc1`, the Potency [1] was active: 7.5 µM, the Potency [2] was inconclusive: 33.5 µM [cytotoxic, partial curve, poor fit] and the Potency [6] was inconclusive: 18.8 µM [rising, partial curve]. The Potency [7] was inconclusive: 0.531 µM [rising, partial curve, poor fit], the Potency [9] was inconclusive: 29.8 µM [rising, partial curve, poor fit] and the Potency [11] was inconclusive: 16.9 µM [cytotoxic, partial curve, poor fit]. For the same compound, the Potency [12] was inconclusive: 16.9 µM [cytotoxic, partial curve, poor fit].

In the case of `OC(CN1CCC(Cc2ccc(F)cc2)CC1)c1ccc(Cl)cc1` (stereo not drawn), the Potency [1] is reported as “inactive”, the Potency [10] is reported as inconclusive: 29.8 µM [cytotoxic] and the Potency [5] is reported as inconclusive: 29.8 µM [rising, partial curve, poor fit]. For the same compound, the activity change, negative = inhibition [6] was inconclusive: -26.8% [at 42.5 µM] and the Potency [8] was inconclusive: 15.1 µM [rising, partial curve, poor fit].

With `Cc1ccc(C(N)=O)cc1N` the Potency [1] was “inactive” and the Potency [2] was “inactive”.

In the case of `Cc1c(C)n(CCN(C)C)c2ccc(C(=O)OCCN(C)C)cc12`, the Potency [1] is reported as “inactive”, the Potency [2] is reported as inconclusive: 33.5 µM [cytotoxic] and the activation [5] is reported as inconclusive: 5.39% [at 42.5 µM]. For the same compound, the activity change, negative = inhibition [6] was inconclusive: 22.6% [at 42.5 µM], the Potency [7] was inconclusive: 2.98 µM [cytotoxic, single point] and the Potency [9] was inconclusive: 0.668 µM [cytotoxic, single point].

In the case of `CCC(C)(CCCC(C)C)OC(C)=O` (stereo not drawn), the Potency [1] is reported as “inactive”, the Potency [2] is reported as inconclusive: 68.6 µM [rising, partial curve, poor fit] and the Potency [13] is reported as “inactive”.

With `CCCCCCCCCCCCCCOS(=O)(=O)O` the Potency [1] was inconclusive: 68.6 µM [inhibitor, single point], the Potency [2] was active: 30.6 µM and the Potency [13] was active: 61.1 µM. For the same compound, the activity change, negative = inhibition [4] was inconclusive: -12%, the activity change, negative = inhibition [6] was inconclusive: 9.81% and the Potency [7] was inconclusive: 30.6 µM [cytotoxic]. For the same compound, the Potency [9] was active: 30.6 µM.

With `CC(CC(=O)Cl)CC(C)(C)C` (stereo not drawn) the Potency [1] was “inactive”, the Potency [10] was “inactive” and the Potency [5] was active: 12.3 µM. The Potency [9] was inconclusive: 8.7 µM [rising, partial curve, poor fit].

With `C#CC(C)N(C)C(=O)Nc1ccc(Cl)cc1` (stereo not drawn) the Potency [1] was “inactive”, the Potency [2] was inconclusive: 68.5 µM [cytotoxic, single point] and the Potency [6] was inconclusive: 48.5 µM [falling, partial curve]. For the same compound, the Potency [7] was inconclusive: 43.2 µM [cytotoxic, partial curve, poor fit] and the Potency [12] was inconclusive: 54.9 µM [rising, single point].

With `Cc1cn([C@H]2C=C[C@@H](CO)O2)c(=O)[nH]c1=O` the activity, negative = inhibition [1] was inconclusive: 3.52% and the Potency [2] was “inactive”.

For `Nc1cccc(S(=O)(=O)O)c1`, the Potency [1] was “inactive”, the Potency [14] was inconclusive: 61.3 µM [rising, partial curve, poor fit] and the Potency [6] was inconclusive: 17.3 µM [rising, partial curve, poor fit]. For the same compound, the Potency [7] was inconclusive: 17.3 µM [cytotoxic, partial curve, poor fit] and the Potency [9] was inconclusive: 61.3 µM [cytotoxic, single point].
